# Data taken from PubChem BioAssay AID1345082 (National Center for Advancing Translational Sciences (NCATS), 2018).
# Hit rate of the full screen: of about 94,000 compounds, about 4,000 (4.3%) were called active. Inconclusive means that the source gave no clear call. Such entries were picked first, then a sample of the others. Calls follow the shape of the dose curve; as a rule, active = well fitted inhibition curve with a large enough effect; inconclusive = small, poorly fitted or top-dose-only effect; inactive = no such curve, though single readings can be large or run the other way. A potency beside an inconclusive call is a rough fit, not a confirmed value.
# Experiment: Cytotoxic Profiling in NIH 3T3 Cell Line of Diverse Libraries Using Quantitative High-Throughput Screening; also: nearly all actives have a fitted effect of over 55% in size
# Settings: NIH 3T3 viability, CellTiter-Glo ATP luminescence, 48-72 h; series mostly up to 96.7 µM; activity change, negative = cytotoxicity: at the top concentration
# Source text: Cell-based phenotypic screening is a commonly used approach to discover biological pathways, novel drug targets, chemical probes and high-quality hit-to-lead molecules. Many hits identified from high-throughput screening campaign are ruled out through a series of follow-up potency, selectivity/specificity, and cytotoxicity assays. Prioritization of molecules with little or no cytotoxicity for a more in-depth downstream evaluation influence the future direction of projects, so cytotoxicity profiling of the screening libraries at early stage is essential for increasing the likelihood of candidate success. In this study, we analyzed results from a cell-based cytotoxicity screening campaign, comprising nearly 10,000 compounds in NCATS annotated libraries, and over 100,000 compounds in a diversity library, evaluated in four normal cell lines (HEK 293, NIH 3T3, CRL-7250 and HaCat) and a cancer cell line (KB 3-1, a HeLa subline) with overall screening outcomes, hit rates, pan-activity and selectivity. For the annotated library, we also examined the primary targets and mechanistic pathways regularly associated with cell death. To our knowledge, this is the first study to use high-throughput screening to profile large libraries for cytotoxicity assessment in both normal and cancer cell lines. In summary, the results generated here constitutes a valuable resource for the scientific community and provides insight on identifying cytotoxic compounds with particular mechanisms of action, and prioritizing compounds with suitable cytotoxicity profile for further evaluation.
# NIH 3T3 cells were seeded into white 1536-well plates using a Multidrop Combi peristaltic dispenser (ThermoFisher, Waltham, MA) at a density of 400 cells/well in 5 uL of medium respectively. A pintool (Kalypsys) was used to transfer 23 nL of compound solution to the 1536-well assay plates. After 48 or 72 hr incubation at 37 degree Celsius, 5% CO2 and 95% humidity, 2.5 uL of CellTiter-Glo (Promega) was dispensed into each well using a dispenser (Aspect Automation, St. Paul, MN) with solenoid valves (Lee Valves, Westbrook CT). Plates were left at room temperature for 10 min before imaging the ATP-coupled luminescence using a ViewLux microplate imager (PerkinElmer, Waltham, MA).
# % is scaled to controls: 0 for no effect and ±100 for the full control effect; potency is read from the fitted curve at half-maximal effect; tags tell the direction and shape of the fitted curve.
SMILES,"activity change, negative = cytotoxicity",Potency,outcome
Cn1cc(C(=O)N2[C@H]3CC[C@@H]2c2cnc(-c4ccc(F)cc4)nc2C3)cn1,inactive: -23.1%,,
COc1cc2c(cc1OCC1CC1)NC(=O)C21CCN(Cc2cccc(O)c2)CC1,,"inconclusive: 56.2 µM [inhibitor, partial curve, poor fit]",
COc1cc2c(cc1OCC1CC1)NC(=O)C21CCN(C(=O)c2cccc(C#N)c2)CC1,,"inconclusive: 70.8 µM [inhibitor, partial curve, poor fit]",
O=C1NC2(Cc3ccccc31)CN(CC1CC1)C2,inactive: 0.241% [at 174 µM],,
O=C1Nc2ccccc2CC12CCN(Cc1ccccn1)C2 (stereo not drawn),inactive: -8.75% [at 138 µM],,
COc1cc2c(cc1Oc1ccccc1)NC(=O)C21CCN(C(=O)C2CCC2)CC1,,"inconclusive: 100 µM [inhibitor, partial curve, poor fit]",
COc1cc2c(cc1CCc1ccccc1)N(C(=O)C(C)C)CC21CCN(C(C)=O)CC1,inactive: -98.1% [at 138 µM],,
COc1ccc(-c2cc([C@H]3CN4CC[C@H]3C[C@@H]4CNS(=O)(=O)c3cccs3)n(C)n2)cc1OC,,"inconclusive: 25.1 µM [inhibitor, partial curve, poor fit]",
C#C[C@H]1CN2CC[C@H]1C[C@@H]2CNC(=O)c1ccc(C(F)(F)F)cc1,,"inconclusive: 100 µM [inhibitor, partial curve, poor fit]",
CC1=NOC2(CCN(Cc3cncs3)C2)C1 (stereo not drawn),,,inactive [at 138 µM]
COCC(=O)NC[C@H]1C[C@@H]2CCN1C[C@@H]2c1cc(-c2ccccc2)nc(C)n1,,"inconclusive: 126 µM [inhibitor, single point]",
COc1cc2c(cc1OCC1CC1)NC(=O)C21CCN(Cc2nccs2)CC1,,"inconclusive: 89.1 µM [inhibitor, partial curve, poor fit]",
CCOC(=O)[C@H]1CN(C(=O)c2cc3ccccc3s2)[C@]2(C)C(=O)N(CC3CC3)c3ccccc3[C@H]12,,"inconclusive: 7.94 µM [inhibitor, full curve, poor fit]",
COc1ccc(-c2cc([C@H]3CN4CC[C@H]3C[C@@H]4CNS(=O)(=O)Cc3ccccc3)n(C)n2)cc1OC,inactive: -25.7%,,
Cc1ccsc1C(=O)N1CCC2(CC1)c1nccn1-c1ccccc1CN2C,,"inconclusive: 44.7 µM [inhibitor, partial curve, poor fit]",
Cc1nc(-c2ccco2)cc([C@H]2CN3CC[C@H]2C[C@@H]3CNC(=O)Cc2cccs2)n1,,"inconclusive: 112 µM [inhibitor, partial curve]",
COc1ccccc1-c1cc([C@H]2CN3CC[C@H]2C[C@@H]3CNC(=O)Nc2cccc(C#N)c2)n(C)n1,,"inconclusive: 50.1 µM [inhibitor, partial curve, poor fit]",
CCOC(=O)[C@H]1CN(S(=O)(=O)c2ccccc2)[C@]2(C)C(=O)N(CC3CC3)c3ccccc3[C@H]12,,"inconclusive: 31.6 µM [inhibitor, partial curve, poor fit]",
Cc1ccc(C(=O)NC[C@H]2C[C@@H]3CCN2C[C@@H]3c2cc(-c3cccs3)nn2C)cc1,,active: 112 µM,
Cn1cc(CN2CCN(C(=O)Cc3ccsc3)CC2)ccc1=O,,,inactive
COc1ccc2c(c1)C1(CCN(C(=O)COc3ccc(Cl)cc3)C1)C(=O)N2C (stereo not drawn),,"inconclusive: 56.2 µM [inhibitor, partial curve, poor fit]",

SMILES,"activity change, negative = cytotoxicity",Potency,outcome
O=C(NCc1ccc2c(c1)OCO2)[C@H]1CN2CCC1C[C@@H]2Cn1cc(-c2cccc(O)c2)nn1 (stereo partly drawn),inactive: -11.2%,,
CCC(CC)c1cc([C@H]2CN3CC[C@H]2C[C@@H]3CNC(=O)CCCC(=O)O)nc(-c2ccncc2)n1,inactive: 1.39%,,
CCCc1nnc(N2C[C@H]3COc4ccccc4C[C@@]3(C(=O)O)C2)s1,,"inconclusive: 89.1 µM [inhibitor, partial curve]",
O=C(NC[C@H]1C[C@@H]2CCN1C[C@@H]2CN1CCN(c2ccccc2)CC1)Nc1ccccc1,,"inconclusive: 126 µM [inhibitor, single point]",
CCC(CC)c1cc([C@H]2CN3CC[C@H]2C[C@@H]3CNC(=O)Nc2ccc(OC)cc2)nc(-c2ccncc2)n1,,"inconclusive: 28.2 µM [inhibitor, full curve, poor fit]",
COc1cc2c(cc1OCc1ccccc1)N([S+](=O)([O-])c1ccccc1C(F)(F)F)CC21CCN(C)CC1,,active: 12.6 µM,
O=C(NCc1ccccc1)[C@H]1CN2CC[C@H]1C[C@@H]2Cn1cc(CO)nn1,inactive: -21.6% [at 174 µM],,
COc1cc2c(cc1OC1CCCC1)NC(=O)C21CCN(C(C)=O)CC1,,"inconclusive: 56.2 µM [inhibitor, partial curve, poor fit]",
Cc1[nH]cnc1CN1C[C@H](c2ccc3c(c2)OCO3)[C@@H]2[C@H]1C1CCN2CC1,inactive: -9.4%,,
CC(C)CN1Cc2ccccc2-n2ccnc2C12CCN(C(=O)c1cccs1)CC2,,"inconclusive: 44.7 µM [inhibitor, partial curve, poor fit]",
O=C(NCc1cccnc1)[C@H]1CN2CC[C@H]1C[C@@H]2Cn1cc(-c2ccccc2)nn1,inactive: -3.24% [at 174 µM],,
O=C(c1ccc(F)cc1)N1C[C@@H]2C[C@H](C1)c1c(/C=C/c3ccc(Cl)cc3)ccc(=O)n1C2,,"inconclusive: 50.1 µM [inhibitor, partial curve, poor fit]",
Cc1nc(-c2ccc(N(C)C)cc2)cc([C@H]2CN3CC[C@H]2C[C@@H]3COC(=O)Nc2ccc(C(C)C)cc2)n1,,active: 3.55 µM,
COc1cc2c(cc1OCc1ccccc1)N([S+](=O)([O-])c1cn(C)cn1)CC21CCN(C)CC1,,"inconclusive: 70.8 µM [inhibitor, partial curve, poor fit]",
CCOC(=O)[C@H]1CN(C(=O)Nc2ccc3c(c2)OCO3)[C@]2(C)C(=O)N(CC3CC3)c3ccccc3[C@H]12,,"inconclusive: 28.2 µM [inhibitor, partial curve, poor fit]",
O=[N+]([O-])c1ccc(Cl)nc1N1CC2CCC(C1)N2CC(F)(F)F,,"inconclusive: 89.1 µM [inhibitor, partial curve, poor fit]",
c1cc(CC2CN3CCCC3CN2)cs1 (stereo not drawn),,,inactive [at 174 µM]
CC[C@H]1CN2CC[C@H]1C[C@@H]2CNC(=O)c1ccccc1,inactive: -6.73% [at 230 µM],,
CN1CCN(C(=O)Cc2c[nH]c3ncc(-c4ccoc4)cc23)CC1,,"inconclusive: 89.1 µM [inhibitor, partial curve, poor fit]",
COc1ccc(OC)c(-c2cnc3[nH]cc(CC(=O)N4CCN(C)CC4)c3c2)c1,,"inconclusive: 79.4 µM [inhibitor, partial curve]",
O=C1Nc2ccccc2CNC12CCN(Cc1ccncc1)CC2,inactive: 4.27%,,

SMILES,"activity change, negative = cytotoxicity",Potency,outcome
CC(C)(C)NC(=O)N1[C@H]2CC[C@@H]1c1cnc(-c3ccccc3)nc1C2,inactive: -0.167%,,
C=C[C@H]1CN2CC[C@H]1C[C@@H]2CNS(=O)(=O)c1ccc2ccccc2c1,,"inconclusive: 126 µM [inhibitor, partial curve, poor fit]",
COc1cccc(N2CC3CCC(C2)N3CC(F)(F)F)n1,inactive: -6.1%,,
COc1cc2c(cc1OCc1ccncc1)NC(=O)C21CCN(Cc2cccc(O)c2)CC1,,"inconclusive: 44.7 µM [inhibitor, partial curve, poor fit]",
O=C1Nc2ccccc2C12CCN(Cc1cncs1)CC2,inactive: -21% [at 138 µM],,
COc1ccccc1-c1cc([C@H]2CN3CC[C@H]2C[C@@H]3COC(=O)Nc2ccc(C(C)C)cc2)n(C)n1,,active: 22.4 µM,
CN(Cc1ccccc1)C[C@H]1CN2CC[C@H]1C[C@@H]2CNC(=O)c1ccccc1,,"inconclusive: 126 µM [inhibitor, single point]",
COc1ccccc1C(=O)N1[C@H]2CC[C@@H]1c1cnc(-c3ccc(F)cc3)nc1C2,,"inconclusive: 8.91 µM [inhibitor, full curve, poor fit]",
CCNC(=O)NC[C@H]1C[C@@H]2CCN1C[C@@H]2c1cc(-c2ccc3ccccc3c2)nn1C,,active: 31.6 µM,
C=CCN(C)C(=O)[C@H]1CN2CCC1C[C@@H]2Cn1cc(COC)nn1 (stereo partly drawn),inactive: -6.58% [at 174 µM],,
CN1CCC2(CC1)CNCc1ccccc1O2,inactive: -21.2%,,
CCc1cnc(N2CCC3(CC2)C(=O)Nc2cc(OCC4CC4)c(OC)cc23)nc1,,active: 100 µM,
COc1cc2c(cc1OCC1CCCC1)N([S+](=O)([O-])c1ccc(Oc3ccccc3)cc1)CC21CCN(CC(=O)O)CC1,,"inconclusive: 44.7 µM [inhibitor, partial curve, poor fit]",
Cc1ccc(CNC(=O)N2[C@H]3CC[C@@H]2c2cncnc2C3)cc1,inactive: -8.91%,,
COc1cc2c(cc1OCc1ccccc1)NC(=O)C21CCN(c2ccnc(C)n2)CC1,,"inconclusive: 56.2 µM [inhibitor, partial curve, poor fit]",
COc1ccc(CNC[C@H]2C[C@@H]3CCN2C[C@@H]3c2cc(-c3ccc4ccccc4c3)nn2C)cc1,,active: 25.1 µM,
COc1cc2c(cc1Oc1ccccc1)NC(=O)C21CCN(c2nc(C)cc(C)n2)CC1,,"inconclusive: 56.2 µM [inhibitor, partial curve, poor fit]",
Cc1nc(-c2ccco2)cc([C@H]2CN3CC[C@H]2C[C@@H]3CNC(=O)NC2CCCCC2)n1,,active: 100 µM,
O=C(Cc1ccccn1)N1CCN(Cc2ccccc2-c2ccccc2F)CC1,,"inconclusive: 39.8 µM [inhibitor, partial curve, poor fit]",
O=C(NCc1ccccc1)[C@H]1CN2CCC1C[C@@H]2Cn1cc(-c2ccc(F)cc2)nn1 (stereo partly drawn),,"inconclusive: 112 µM [inhibitor, single point]",
Cn1nc(-c2ccc(F)cc2)cc1[C@H]1CN2CC[C@H]1C[C@@H]2CNC(=O)c1ccc2c(c1)OCO2,,"inconclusive: 56.2 µM [inhibitor, partial curve, poor fit]",
